What all share (assay): Primary Screen for Target Class Profiling of Small Molecule Inhibitors of Methyltransferases
The target in experiment [1] is Glycine N-methyltransferase (Homo sapiens) (UniProt Q14749). The settings on record: purified enzyme, MTase-Glo SAH luminescence; measured here: GNMT inhibition; at 40 µM; stronger effect = lower value. The essentials: (§1)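 Each enzyme was reacted with SAM and its substrate, with compounds tested once at 40 uM; SAH formed was read by MTase-Glo luminescence.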
Experiment [2] addresses Guanidinoacetate N-methyltransferase (Homo sapiens) (UniProt Q14353). The settings on record: purified enzyme, MTase-Glo SAH luminescence; measured here: GAMT inhibition; at 40 µM; stronger effect = lower value. The essentials: as §1
In experiment [3] the target is Histamine N-methyltransferase (Homo sapiens) (UniProt P50135). The settings on record: purified enzyme, MTase-Glo SAH luminescence; measured here: HNMT inhibition; at 40 µM; stronger effect = lower value. The procedure, abridged: as §1
The target in experiment [4] is Nicotinamide N-methyltransferase (Homo sapiens) (UniProt P40261). The settings on record: purified enzyme, MTase-Glo SAH luminescence; measured here: NNMT inhibition; at 40 µM; stronger effect = lower value. The essentials: as §1
Experiment [5] has as its target Phenylethanolamine N-methyltransferase (Homo sapiens) (UniProt P11086). Particulars: purified enzyme, MTase-Glo SAH luminescence; measured here: PNMT inhibition; at 40 µM; stronger effect = lower value. The procedure, abridged: as §1

From PubChem BioAssay AID1745853 (National Center for Advancing Translational Sciences (NCATS), 2022) come the findings set out here.

“And” between values parts separate entries of the source, which are not always exact repeats. Equal entries are not always repeated. Some of the results follow. Further columns of the screen follow, without active or inactive calls.
% is set by controls: 0 for no effect and ±100 for the full control effect.

Consider `COc1ccc(CNC(=O)Cn2ccc3cc(S(=O)(=O)N4CCCCC4)ccc32)cc1OC`, for which the activity change, negative = inhibition in experiment [1] is -15.3%; in experiment [2] it was -0.333%; in experiment [3] it was -6.54%; in experiment [4], -16%; in experiment [5], -3.91%.
The matching figures for `O=S(=O)(Nc1ccccn1)c1ccc(N=Cc2c(O)[nH]c3ccc4ncsc4c23)cc1`: -7.93%, 7.19%, 12.4%, -9.97% and 6.05%.
In the same order, the values of `Cc1nc(N2CCC(C(=O)NC3CCC(C)CC3)CC2)cc(C(F)(F)F)n1` (stereo not given) are 1.28%, -0.997%, 1.05%, 1.52% and -1.9%.
Take `CC(=O)OC[C@]12[C@H](OC(C)=O)C(=O)[C@@H]3[C@@H](O)[C@@]14O[C@@]3(C)COC(=O)c1cccnc1[C@@H](C)[C@H](C)C(=O)O[C@@H]([C@H](O)[C@@H]2OC(C)=O)[C@]4(C)O`: the activity change, negative = inhibition in experiment [1] was -2.97%; in experiment [2], -7.39%; in experiment [3], 3.94%; in experiment [4] it was -16.2%; in experiment [5] it was -8.47%.
As for `O=C(CCn1ccc2cc(S(=O)(=O)N3CCCCC3)ccc21)NCCCN1CCCC1=O`, the activity change, negative = inhibition in experiment [1] is 0.187%; in experiment [2], 5.63%; in experiment [3], 0.97%; in experiment [4], -0.98%; in experiment [5], 2.71%.
On to `Cc1cc(OCCCS(C)(=O)=O)cc(C)c1-c1cccc(COc2ccc3c(c2)OCC3CC(=O)O)c1` (stereo not given), for which the activity change, negative = inhibition in experiment [1] is -30.5%; in experiment [3], -1.16%.
Take `O=C1CCN(Cc2c[nH]c3ccccc23)CCCC(C(=O)NCc2ccccc2)CCN1` (stereo not given): the activity change, negative = inhibition in experiment [1] is -10.5%; in experiment [2] it was -8.7%; in experiment [3] it was -8.27%; in experiment [4], -13.9%; in experiment [5] it was -4.92%.
In the same order, the values of `N#Cc1cccc(C(=O)NCc2nnc3ccc(-c4ccc(F)cc4)nn23)c1` are -5.85%, -1.76%, -0.815%, -3.8% and -4.81%.
Take `CCC(=O)N1CCOc2c(cc(-c3ccc(OC)c(OC)c3)cc2OC[C@H]2CCCN(C)C2)C1`: the activity change, negative = inhibition was -0.701% in experiment [1]; -1.06% in experiment [2]; -52.4% in experiment [3]; -17.1% in experiment [4]; -7.02% in experiment [5].
The matching figures for `CC1(C)CC[C@]2(C(=O)O)CC[C@]3(C)C(=CCC4[C@@]5(C)C[C@H](O)[C@H](O[C@@H]6O[C@H](CO)[C@@H](O)[C@H](O)[C@H]6O)[C@@](C)(CO)C5[C@H](O)C[C@]43C)[C@@H]2C1` (stereo not given in full): 1.14%, -1.28%, 10.8%, -12.7% and -6.95%.
Consider `CC(C)NC(=O)CSc1nnc2n(Cc3ccccc3)c(=O)c3ccc(C(=O)NC(C)C)cc3n12`, for which the activity change, negative = inhibition in experiment [1] turned out to be 4.19%; in experiment [2], 0%; in experiment [3], 8.51%; in experiment [4], 7.37%; in experiment [5], 4.85%.
Consider `CSCC1OC(n2cnc3c(=O)[nH]cnc32)C(O)C1O` (stereo not given), for which the activity change, negative = inhibition in experiment [1] was -0.023%; in experiment [2], 0.002%; in experiment [3] it was 3.42%; in experiment [4], -11.7%; in experiment [5], 3.74%.
In the same order, the values of `CC(C)(C)CC(=O)N1CCC2(CC1)N(c1ccccc1)C(=O)CS2(=O)=O` are -5.65%, -9.56%, -2.13%, -2.86% and -3.49%.
Regarding `CC(C)CCCC1CN(C(=O)c2c(O)cccc2O)CCO1` (stereo not given), the activity change, negative = inhibition in experiment [1] was -5.62%; in experiment [2], -7.96%; in experiment [3] it was -2.31%; in experiment [4] it was -13.2%; in experiment [5], -9.74%.
The matching figures for `CCC(C)NC(=O)c1ccc2c(=O)n(C(C)C)c3nn(CC(=O)Nc4ccc(F)cc4)c(=O)n3c2c1` (stereo not given): 1.79%, 0%, 3.25%, 0.756% and 1.19%.
With `Cc1ccccc1NC(=O)N1Cc2c(sc3c2CCCC3)-n2cccc2C1c1cccc(F)c1` (stereo not given), the activity change, negative = inhibition turned out to be 3.53% in experiment [1]; 0% in experiment [2]; 8.06% in experiment [3]; 3.94% in experiment [4]; 10% in experiment [5].
The matching figures for `Cc1ccc(S(=O)(=O)c2nnn3c2nc(NC(C)C)c2cc(Cl)ccc23)cc1C`: -1.81%, 0%, 6.83%, 4.42% and -2.67%.
The matching figures for `O=C(NCC1CCOCC1)Nc1c(F)cccc1F`: 0.495%, 1.02%, 2.45%, -4.83% and 14.8%.
The matching figures for `COc1ccccc1CCNC(=O)c1cc2n(n1)CC(C)(C(=O)NCc1ccc(F)cc1)N(C)C2=O` (stereo not given): 6.86%, 1.04%, -0.909%, 8.56% and 6.86%.
With `C=Cc1ccc(Cn2nc3n(CCC(C)C)c(=O)c4ccc(C(=O)NC(C)C)cc4n3c2=O)cc1`, the activity change, negative = inhibition is -8.81% in experiment [1]; -7.53% in experiment [2]; 1.53% in experiment [3]; -16.4% in experiment [4]; -3.47% in experiment [5].
The matching figures for `Cn1ccc(C(=O)N2CC3ON=C(C(=O)NCCc4ccc(Cl)cc4)C3C2)n1` (stereo not given): -3.33%, -6.74%, -0.76%, -6.82% and -4.86%.
Consider `Nc1ccccc1NC(=O)c1ccc(CNC(=O)OCc2cccnc2)cc1`, for which the activity change, negative = inhibition is 6.69% and -23.1% in experiment [1]; 7.39% in experiment [2]; 10.1% and -8.58% in experiment [3]; -8.84% and -13.8% in experiment [4]; 3.79% and 19.8% in experiment [5].
Take `Cn1cc(-c2cc(=O)c3ccnc(NC4CCOCC4)c3o2)cn1`: the activity change, negative = inhibition in experiment [1] was -4.58%; in experiment [2], -7.03%; in experiment [3], -2.79%; in experiment [4], -17.9%; in experiment [5], -5.65%.
The matching figures for `O=C(NC1CCN(c2ccnc3ccnn23)C1)c1cc(F)ccc1Br` (stereo not given): -10.2%, -8.53%, -5.71%, -17.1% and -12.1%.
In the same order, the values of `CC12CCC3C(C)(C)C(O)CCC3(C)C1Cc1c(oc(C(=O)O)cc1=O)O2` (stereo not given) are -2.34%, 0.197%, 0.99%, -9.32% and 3.49%.
The matching figures for `COc1ccc(CNC(=O)C2(C)Cn3cnc(C(=O)NCc4ccccc4Cl)c3C(=O)N2C2CC2)cc1` (stereo not given): 1.67%, 2.09%, 14.6%, 3.62% and 10.2%.
Turning to `Cc1ccc(N2C(=O)c3cc4sccc4n3CC2(C)C(=O)NC2CCCCCC2)c(C)c1` (stereo not given), the activity change, negative = inhibition was -0.711% in experiment [1]; 4.78% in experiment [2]; -5.5% in experiment [3]; -1.21% in experiment [4]; -6.56% in experiment [5].
On to `CN1CC2CN(c3ccc4oc5ccccc5c(=O)c4c3)CC2C1` (stereo not given), for which the activity change, negative = inhibition in experiment [1] is -10.6%; in experiment [2], -2.58%; in experiment [3], -32%; in experiment [4], -20%; in experiment [5], -12.6%.
`O=C1NCN(c2ccccc2)C12CCN(CCCC(c1ccc(F)cc1)c1ccc(F)cc1)CC2`: the activity change, negative = inhibition was -5.27% in experiment [1]; 14.1% in experiment [2]; -49.1% in experiment [3]; -14.8% in experiment [4]; 9.5% in experiment [5].
In the case of `O=C(Nc1ccc(-c2ccnc(Nc3ccc(N4CCOCC4)cc3)n2)cc1)[C@@H]1CCCN1`, the activity change, negative = inhibition in experiment [2] is -10.5%; in experiment [4], -22.5%; in experiment [5] it was -17.7%.
